No constants are given. Whether binding was seen depends on the method and setting. For some assays here: Binding seen in cells or lysates may run through a third protein. Some binding calls cover weakened binding; strength is not graded here. For some assays here: Tags and fused reporters may be left off the sequences shown.

Test [1] concerns the target HKRD-CA2 (994-1172 a.a.) (Arabidopsis) (UniProt P14713). In words: two-hybrid; GAL4 system, bait pGBKT7 in Y2HGold mated with prey pGADT7AD in Y187; HIS3 reporter, growth on SD/-Trp/-Leu/-His without AbA (less stringent), 30 °C.
The target of test [2] is PHYB18 C-terminal module (625-1172 a.a., D1040V), N-terminal HA- or Myc-tagged (Arabidopsis) (UniProt P14713). In words: co-IP; in vitro co-immunoprecipitation: HA-tagged bait and Myc-tagged prey co-expressed in TNT T7 reticulocyte lysate, anti-HA Affinity Matrix, E buffer (50 mM Tris-HCl pH 7.5, 100 mM NaCl, 1 mM EDTA, 1 mM EGTA, 1% DMSO, 2 mM DTT, 0.1% Nonidet P-40), 4 °C 2 h; anti-Myc immunoblot. (In general: In western blotting, separated proteins are transferred to a membrane and probed.)

Test [3] has as its target HKRD-D (863-1060 a.a.) (Arabidopsis) (UniProt P14713). In words: two-hybrid; GAL4 system, bait pGBKT7 in Y2HGold mated with prey pGADT7AD in Y187; growth on SD/-Trp/-Leu with 125 ng/ml Aureobasidin A (high stringency), 30 °C.
Test [4] has as its target T1, GST-PIF3 (Arabidopsis, UniProt O80536 1-524).
T1 construct: the construct is not described here
T1 sequence (looked up): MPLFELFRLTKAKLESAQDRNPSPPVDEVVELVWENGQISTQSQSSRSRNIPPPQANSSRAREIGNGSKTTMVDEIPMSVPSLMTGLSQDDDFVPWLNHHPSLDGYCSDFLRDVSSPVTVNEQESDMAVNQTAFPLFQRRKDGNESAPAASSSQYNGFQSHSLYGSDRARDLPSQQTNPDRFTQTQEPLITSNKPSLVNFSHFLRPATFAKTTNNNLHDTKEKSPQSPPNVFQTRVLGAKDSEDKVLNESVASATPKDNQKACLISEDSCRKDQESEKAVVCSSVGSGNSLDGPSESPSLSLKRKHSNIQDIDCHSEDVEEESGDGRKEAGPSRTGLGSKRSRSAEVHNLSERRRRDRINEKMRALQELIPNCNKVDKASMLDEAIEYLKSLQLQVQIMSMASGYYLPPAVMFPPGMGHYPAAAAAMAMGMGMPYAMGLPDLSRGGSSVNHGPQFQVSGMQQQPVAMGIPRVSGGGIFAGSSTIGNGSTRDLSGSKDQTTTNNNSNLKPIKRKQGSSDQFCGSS
In words: pull-down; GST pull-down: immobilized GST-PIF3 pulls down HA-tagged PHYB in the Pr form; anti-HA immunoblot; procedure as ref. 33; only the target purified.

In test [5] the target is T1, GST-PIF3. In words: pull-down; GST pull-down: immobilized GST-PIF3 pulls down HA-tagged PHYB in the Pfr form; anti-HA immunoblot; procedure as ref. 33; only the target purified.
Test [6] deals with HKRD-CA3 (1041-1172 a.a.) (Arabidopsis) (UniProt P14713). In words: two-hybrid; GAL4 system, bait pGBKT7 in Y2HGold mated with prey pGADT7AD in Y187; HIS3 reporter, growth on SD/-Trp/-Leu/-His without AbA (less stringent), 30 °C.
Test [7] deals with T1, GST-PIF3. In words: pull-down; GST pull-down: immobilized GST-PIF3 pulls down HA-tagged PHYB as apoprotein; anti-HA immunoblot; procedure as ref. 33; only the target purified.
In test [8] the target is full-length PHYB, N-terminal HA- or Myc-tagged (Arabidopsis) (UniProt P14713). As to the kind of experiment: co-IP; in vitro co-immunoprecipitation: HA-tagged bait and Myc-tagged prey co-expressed in TNT T7 reticulocyte lysate, anti-HA Affinity Matrix, E buffer (50 mM Tris-HCl pH 7.5, 100 mM NaCl, 1 mM EDTA, 1 mM EGTA, 1% DMSO, 2 mM DTT, 0.1% Nonidet P-40), 4 °C 2 h; anti-Myc immunoblot.

Test [9] addresses PHYB HKRD domain (863-1172 a.a.) (Arabidopsis) (UniProt P14713). In words: two-hybrid; GAL4 system, bait pGBKT7 in Y2HGold mated with prey pGADT7AD in Y187; growth on SD/-Trp/-Leu with 125 ng/ml Aureobasidin A (high stringency), 30 °C.
Test [10] has as its target T2, HA-tagged PIF3 (HA-PIF3) (Arabidopsis) (UniProt O80536).
T2 sequence: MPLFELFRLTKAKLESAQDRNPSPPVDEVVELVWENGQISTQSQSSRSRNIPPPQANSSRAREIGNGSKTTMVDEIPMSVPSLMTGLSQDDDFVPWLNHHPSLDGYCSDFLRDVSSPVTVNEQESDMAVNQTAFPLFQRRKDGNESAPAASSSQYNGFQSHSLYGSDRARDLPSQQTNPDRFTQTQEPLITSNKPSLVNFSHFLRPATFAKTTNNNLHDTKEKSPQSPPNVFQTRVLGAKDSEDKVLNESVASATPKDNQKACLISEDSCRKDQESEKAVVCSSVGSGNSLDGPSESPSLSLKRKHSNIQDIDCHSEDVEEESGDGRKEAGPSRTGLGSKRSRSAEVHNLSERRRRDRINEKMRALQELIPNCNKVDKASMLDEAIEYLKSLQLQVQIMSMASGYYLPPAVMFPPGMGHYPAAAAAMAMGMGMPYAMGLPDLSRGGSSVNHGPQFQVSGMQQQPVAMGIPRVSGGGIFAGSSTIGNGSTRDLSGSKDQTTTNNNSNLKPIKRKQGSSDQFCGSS
As to the kind of experiment: co-IP; in vitro co-immunoprecipitation: HA-tagged bait and Myc-tagged prey co-expressed in TNT T7 reticulocyte lysate, anti-HA Affinity Matrix, E buffer (50 mM Tris-HCl pH 7.5, 100 mM NaCl, 1 mM EDTA, 1 mM EGTA, 1% DMSO, 2 mM DTT, 0.1% Nonidet P-40), 4 °C 2 h; anti-Myc immunoblot.

The target in test [11] is PHYB C-terminal module (625-1172 a.a.), N-terminal HA- or Myc-tagged (Arabidopsis) (UniProt P14713). The test is described as above.
Test [12] has as its target PHYB HKRD domain (863-1172 a.a.) with the D1040V mutation (Arabidopsis) (UniProt P14713). In words: two-hybrid; GAL4 system, bait pGBKT7 in Y2HGold mated with prey pGADT7AD in Y187; growth on SD/-Trp/-Leu with 125 ng/ml Aureobasidin A (high stringency), 30 °C.
Test [13] addresses HA-tagged C-terminal PHYB (BC-HA), 625-1172 a.a. (Arabidopsis) (UniProt P14713). As to the kind of experiment: co-IP; in vitro co-immunoprecipitation: HA-tagged bait and Myc-tagged prey co-expressed in TNT T7 reticulocyte lysate, anti-HA Affinity Matrix, E buffer (50 mM Tris-HCl pH 7.5, 100 mM NaCl, 1 mM EDTA, 1 mM EGTA, 1% DMSO, 2 mM DTT, 0.1% Nonidet P-40), 4 °C 2 h; anti-Myc immunoblot.

On to “HKRD-CA2 (994-1172 a.a.) (from UniProt P14713 994-1172) (domain or fragment)”, for which the binding result in [1] is “binds weakly”.
As to “PHYB18 C-terminal module (625-1172 a.a., D1040V), N-terminal HA- or Myc-tagged (from UniProt P14713 625-1172) (domain or fragment)”, in test [2], the binding result is given as “no binding”.
As for “HKRD-D (863-1060 a.a.) (from UniProt P14713 863-1060) (domain or fragment)”, the binding entry in test [3] was “no binding”.
For “PHYB-HA, Pr or Pfr form (from UniProt P14713 1-1172)”, the binding entry with GST-PIF3 [4] and with GST-PIF3 [5] was “binds” each time.
As for “HKRD-CA3 (1041-1172 a.a.) (from UniProt P14713 1041-1172) (domain or fragment)”, the binding entry in test [6] is “no binding”.
As for “PHYB-HA, apoprotein (from UniProt P14713 1-1172)”, the binding entry in the test with GST-PIF3 [7] is listed as “binds”.
Take “full-length PHYB, N-terminal HA- or Myc-tagged (from UniProt P14713 1-1172)”: in [8], the binding entry is recorded as “binds”.
Take “PHYB HKRD domain (863-1172 a.a.) with the D1040V mutation (from UniProt P14713 863-1172) (domain or fragment)”: the binding entry in [9] is on record as “no binding”.
As for “PHYB C-terminal module (625-1172 a.a.), N-terminal HA- or Myc-tagged (from UniProt P14713 625-1172) (domain or fragment)”, the binding result in [10] and in [11] was “binds” each time.
As for “PHYB HKRD domain (863-1172 a.a.) (from UniProt P14713 863-1172) (domain or fragment)”, the binding result was “no binding” in test [12] and “binds” in test [9].

B1: Myc-tagged C-terminal PHYE (EC-Myc), 549-1112 a.a. (domain or fragment, UniProt P42498 549-1112)
chain: SRSLPWEISEIDAIHSLRLIMRESFTSSRPVLSGNGVARDANELTSFVCEMVRVIETATAPIFGVDSSGCINGWNKKTAEMTGLLASEAMGKSLADEIVQEESRAALESLLCKALQGEEEKSVMLKLRKFGQNNHPDYSSDVCVLVNSCTSRDYTENIIGVCFVGQDITSEKAITDRFIRLQGDYKTIVQSLNPLIPPIFASDENACCSEWNAAMEKLTGWSKHEVIGKMLPGEVFGVFCKVKCQDSLTKFLISLYQGIAGDNVPESSLVEFFNKEGKYIEASLTANKSTNIEGKVIRCFFFLQIINKESGLSCPELKESAQSLNELTYVRQEIKNPLNGIRFAHKLLESSEISASQRQFLETSDACEKQITTIIESTDLKSIEEGKLQLETEEFRLENILDTIISQVMIILRERNSQLRVEVAEEIKTLPLNGDRVKLQLILADLLRNIVNHAPFPNSWVGISISPGQELSRDNGRYIHLQFRMIHPGKGLPSEMLSDMFETRDGWVTPDGLGLKLSRKLLEQMNGRVSYVREDERCFFQVDLQVKTMLGVESRGTEGSSSIK
Regarding B1, the binding result in [13] is reported as “binds”.

B2: Myc-tagged C-terminal PHYA (AC-Myc), 563-1122 a.a. (domain or fragment, UniProt P14712 563-1122)
chain: TRSLPWKDYEMDAIHSLQLILRNAFKDSETTDVNTKVIYSKLNDLKIDGIQELEAVTSEMVRLIETATVPILAVDSDGLVNGWNTKIAELTGLSVDEAIGKHFLTLVEDSSVEIVKRMLENALEGTEEQNVQFEIKTHLSRADAGPISLVVNACASRDLHENVVGVCFVAHDLTGQKTVMDKFTRIEGDYKAIIQNPNPLIPPIFGTDEFGWCTEWNPAMSKLTGLKREEVIDKMLLGEVFGTQKSCCRLKNQEAFVNLGIVLNNAVTSQDPEKVSFAFFTRGGKYVECLLCVSKKLDREGVVTGVFCFLQLASHELQQALHVQRLAERTAVKRLKALAYIKRQIRNPLSGIMFTRKMIEGTELGPEQRRILQTSALCQKQLSKILDDSDLESIIEGCLDLEMKEFTLNEVLTASTSQVMMKSNGKSVRITNETGEEVMSDTLYGDSIRLQQVLADFMLMAVNFTPSGGQLTVSASLRKDQLGRSVHLANLEIRLTHTGAGIPEFLLNQMFGTEEDVSEEGLSLMVSRKLVKLMNGDVQYLRQAGKSSFIITAELAAANK
In the case of B2, the binding result in test [13] is “no binding”.

B3: Myc-tagged C-terminal PHYC (CC-Myc), 553-1111 a.a. (domain or fragment, UniProt P14714 553-1111)
chain: WKSVPWDDMEMDAINSLQLIIKGSLQEEHSKTVVDVPLVDNRVQKVDELCVIVNEMVRLIDTAAVPIFAVDASGVINGWNSKAAEVTGLAVEQAIGKPVSDLVEDDSVETVKNMLALALEGSEERGAEIRIRAFGPKRKSSPVELVVNTCCSRDMTNNVLGVCFIGQDVTGQKTLTENYSRVKGDYARIMWSPSTLIPPIFITNENGVCSEWNNAMQKLSGIKREEVVNKILLGEVFTTDDYGCCLKDHDTLTKLRIGFNAVISGQKNIEKLLFGFYHRDGSFIEALLSANKRTDIEGKVTGVLCFLQVPSPELQYALQVQQISEHAIACALNKLAYLRHEVKDPEKAISFLQDLLHSSGLSEDQKRLLRTSVLCREQLAKVISDSDIEGIEEGYVELDCSEFGLQESLEAVVKQVMELSIERKVQISCDYPQEVSSMRLYGDNLRLQQILSETLLSSIRFTPALRGLCVSFKVIARIEAIGKRMKRVELEFRIIHPAPGLPEDLVREMFQPLRKGTSREGLGLHITQKLVKLMERGTLRYLRESEMSAFVILTEFPLI
Consider B3, for which the binding result in test [13] is “no binding”.

B4: Myc-tagged C-terminal PHYD (DC-Myc), 598-1164 a.a. (domain or fragment, UniProt P42497 598-1164)
chain: SRCQPWETAEMDAIHSLQLILRDSFKESEAMDSKAAAAGAVQPHGDDMVQQGMQEIGAVAREMVRLIETATVPIFAVDIDGCINGWNAKIAELTGLSVEDAMGKSLVRELIYKEYKETVDRLLSCALKGDEGKNVEVKLKTFGSELQGKAMFVVVNACSSKDYLNNIVGVCFVGQDVTGHKIVMDKFINIQGDYKAIIHSPNPLIPPIFAADENTCCLEWNTAMEKLTGWPRSEVIGKLLVREVFGSYCRLKGPDALTKFMIVLHNAIGGQDTDKFPFPFFDRKGEFIQALLTLNKRVSIDGKIIGAFCFLQIPSPELQQALEVQRRQESEYFSRRKELAYIFQVIKNPLSGLRFTNSLLEDMDLNEDQKQLLETSVSCEKQISKIVGDMDVKSIDDGSFLLERTEFFIGNVTNAVVSQVMLVVRERNLQLIRNIPTEVKSMAVYGDQIRLQQVLAEFLLSIVRYAPMEGSVELHLCPTLNQMADGFSAVRLEFRMACAGEGVPPEKVQDMFHSSRWTSPEGLGLSVCRKILKLMNGGVQYIREFERSYFLIVIELPVPLMMMMPSS
For B4, the binding result in test [13] is “binds”.
